Measured values from article PMC4336329 (PLoS ONE, 2015).
The whole screen tested about 310,000 compounds, of which about 2,200 (0.71%) showed an effect of 50% or more. Effects have a minus sign here. The list shows a part of the results.

Target: human ether-à-go-go-related gene (hERG) potassium channel (human, UniProt Q12809)
Test: primary screen, population patch clamp on CHO cells stably expressing hERG

Chain of human ether-à-go-go-related gene (hERG) potassium channel (Q12809 whole entry, looked up): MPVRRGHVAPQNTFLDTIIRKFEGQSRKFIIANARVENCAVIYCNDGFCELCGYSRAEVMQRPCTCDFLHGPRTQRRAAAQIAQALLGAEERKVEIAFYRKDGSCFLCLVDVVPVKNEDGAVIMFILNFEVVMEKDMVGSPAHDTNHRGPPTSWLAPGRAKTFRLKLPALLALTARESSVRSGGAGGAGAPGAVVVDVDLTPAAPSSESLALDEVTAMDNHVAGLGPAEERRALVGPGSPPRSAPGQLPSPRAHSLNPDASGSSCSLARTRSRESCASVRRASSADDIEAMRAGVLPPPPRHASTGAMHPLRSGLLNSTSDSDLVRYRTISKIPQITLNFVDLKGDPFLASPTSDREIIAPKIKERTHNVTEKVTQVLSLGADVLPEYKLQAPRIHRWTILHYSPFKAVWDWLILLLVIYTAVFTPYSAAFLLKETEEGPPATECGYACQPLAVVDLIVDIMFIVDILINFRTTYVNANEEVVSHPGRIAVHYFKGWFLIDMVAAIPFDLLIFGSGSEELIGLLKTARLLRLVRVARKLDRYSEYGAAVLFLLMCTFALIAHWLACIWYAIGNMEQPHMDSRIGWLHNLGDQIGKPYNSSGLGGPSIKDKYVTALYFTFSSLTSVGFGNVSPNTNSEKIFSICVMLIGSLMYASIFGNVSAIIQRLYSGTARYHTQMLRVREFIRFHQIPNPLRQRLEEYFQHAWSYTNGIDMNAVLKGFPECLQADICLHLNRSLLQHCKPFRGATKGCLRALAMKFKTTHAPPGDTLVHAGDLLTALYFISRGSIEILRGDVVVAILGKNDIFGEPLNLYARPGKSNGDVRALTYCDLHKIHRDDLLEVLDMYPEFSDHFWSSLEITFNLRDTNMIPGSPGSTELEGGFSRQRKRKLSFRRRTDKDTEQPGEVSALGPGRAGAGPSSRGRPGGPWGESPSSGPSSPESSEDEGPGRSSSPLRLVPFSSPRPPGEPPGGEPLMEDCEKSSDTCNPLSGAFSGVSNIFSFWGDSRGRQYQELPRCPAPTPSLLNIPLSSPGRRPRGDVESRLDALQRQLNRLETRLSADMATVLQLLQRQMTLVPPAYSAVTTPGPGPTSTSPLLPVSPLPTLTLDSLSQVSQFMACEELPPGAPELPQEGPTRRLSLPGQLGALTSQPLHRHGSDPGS

Row | Structure (SMILES) | hERG current change (%, negative = inhibition) at 1uM [%]
1 | N#CCCNC(=O)Cn1c(COc2ccc(Cl)cc2)nc2ccccc21 | -7.71
2 | Cc1ccc(NC(=O)c2ccccn2)c(Br)c1 | 13.7
3 | CCC(C(=O)Nc1ccc(Cl)cc1)N1CCCC1=O (centres unmarked) | 15
4 | O=C(COC(=O)c1ccc(F)c(S(=O)(=O)N2CCOCC2)c1)NC1CCCCC1 | 9.85
5 | Cc1cccn2c(=O)c(/C=N/O)c(NCc3ccccc3)nc12 | 9.29
6 | O=C(c1ccncc1)C12CN3CN(CN(C3)C1)C2 | 8.51
7 | CC1CC(C)(C)CC2(C1)NC(=O)N(CC(=O)OCc1ccc(Br)cc1)C2=O (centres unmarked) | 2.21
8 | CCOc1ccc(S(=O)(=O)NC(C)(C)C)cc1-c1nc2c(C(C)(C)C)nn(C)c2c(=O)[nH]1 | 9.15
9 | CCCCNC(=O)C1CCCN(S(=O)(=O)c2c(C)noc2/C=C/c2cccs2)C1 (centres unmarked) | -3.22
10 | Cc1ccc(NC(=O)CCCCCN2C(=O)[C@@H]3Cc4ccccc4CN3C2=O)c(Cl)c1 | 9.09
11 | COC(=O)c1ccc(NC(=O)c2c(Br)cnn2C)cc1 | 14.1
12 | CCCCC(CC(C)O)c1n[nH]c(=S)n1-c1ccccc1 (centres unmarked) | 4.45
13 | COc1ccccc1CNc1ccc(CNc2ncn[nH]2)cc1 | 10.5
14 | CC(CCc1ccccc1)NC(=O)C(=O)NCCc1ccccc1 (centres unmarked) | -10.2
15 | CCc1cc(=O)oc2c(C)c(OC(C)C(=O)NCC3CCC(C(=O)O)CC3)ccc12 (centres unmarked) | 18
16 | CC(C)C(NC(=O)C(C)N1C(=O)c2ccccc2C1=O)c1ccccc1 (centres unmarked) | 17.3
17 | CC(=O)Nc1sc2c(c1CN1CCCC1)CCCC2 | 10.4
18 | Cc1ccc(CNC(=O)C2CCCN(c3nc4ccccc4o3)C2)cc1 (centres unmarked) | 8.27
19 | O=C(COC(=O)c1ccc[nH]c1=O)NCC12CC3CC(CC(C3)C1)C2 | 6.89
20 | Cc1ccc(NC(=O)Nc2nnc(-c3ccncc3)s2)cc1 | 6.26
21 | COCCCNC(=S)Nc1cccc2ncccc12 | 13
22 | COc1ccccc1OCCCCOc1ccccc1C(C)=O | 12.5

Row | Structure (SMILES) | hERG current change (%, negative = inhibition) at 1uM [%]
23 | Cc1nc(-c2ccccc2)cc(N2CCCC2)n1 | -6.1
24 | CCOC(=O)C1(CCCc2ccccc2)CCN(C(=O)CCc2cnccn2)CC1 | -16.2
25 | CCc1cccc(C)c1NC(=S)NCC(c1cccnc1)N1CCOCC1 (centres unmarked) | 7.34
26 | CCOC(=O)c1c(NC(=O)CSc2nnnn2-c2ccccc2OCC)sc2c1CC(C)(C)NC2(C)C | -20.3
27 | COc1ccc(-c2nc(CS(=O)(=O)CC(=O)NCCc3cc(OC)ccc3OC)c(C)o2)cc1 | -2.88
28 | CC1=CC(C)(C)NC(=S)N1c1cc(C)cc(C)c1 | -0.0536
29 | CC1(C)Cc2c(C#N)c(NCc3ccco3)nc(-c3ccco3)c2CO1 | -0.837
30 | COc1ccc(C(=O)Oc2cccc3cccnc23)cc1[N+](=O)[O-] | 5.14
31 | Cc1cc(=O)oc2c(C(=O)/C=C/c3ccccc3)c(O)ccc12 | 3.94
32 | CC(C)CCN1CC(=O)N2Cc3[nH]c4ccccc4c3C[C@H]2C1=O | 16.1
33 | CC(C)NC(=O)Cn1c(SCC(=O)N2CCc3ccccc3C2)nc2ccccc21 | 4.07
34 | O=c1c(C=NCC2CCCO2)c(-c2ccccc2)[nH]n1-c1ccc([N+](=O)[O-])cc1 (centres unmarked) | 5.93
35 | CCCn1c(N)c(N(CCOC)C(=O)CSCC(=O)Nc2ccc(OC)cc2)c(=O)[nH]c1=O | 7.32
36 | COC(=O)C1C(O)C(C)C(O)C(C)/C=C\C=C(/C)C(=O)Nc2c(C)c(OC(C)=O)c3c(c2O)C(=O)C(C)=C2OCOC(=C23)/C(C)=C/C(C)(O)C(O)C(C)C1O (centres unmarked) | 9.05
37 | C=CCc1ccccc1OCC(=O)N/N=C/c1ccccc1OCC | 5.01
38 | CC(C)(C)c1ccc(CCC(CC(=O)O)CC(=O)O)cc1 | -0.528
39 | Cc1cc(CSC(=N)N)c(CSC(=N)N)cc1C | 2.96
40 | CCC(=O)Nc1c2c(nn1-c1ccccc1)CSC2 | 15.7
41 | COc1cc(/C=N/NC(=O)CNC(=O)c2ccc3c(c2)OCCO3)ccc1O | 6.33
42 | O=C(C1CC1)N1CCc2cc(S(=O)(=O)N3CCOCC3)ccc21 | 2.52
43 | CC(=O)N1CC[n+]2c(-c3ccc([N+](=O)[O-])cc3)csc21.[Br-] | 2.01
44 | CCSc1ccc([C@@H]2[C@H]3C(=O)N(CC)C(=O)[C@H]3[C@]3(C(=O)OC)CCCCN23)cc1.O=C(O)C(F)(F)F | 6.46
